Experimental data published in a collection of fitness landscapes (doi:10.1016/j.celrep.2020.107928).
The full ranking holds about 81,000 sequences; the median of “one-hybrid fitness for binding parS DNA” is about -0.17, and the highest 2% start at about 0.51. This is one part of the list.

B1: Caulobacter ParB omega fusion; a variant is named by its letters at X, in order, B8GW30 (parent)
chain: MESVVVGEPGMSEGRRGLGRGLSALLGEVDAAPAQAPGEQLGGSREAPIEILQRNPDQPRRTFREEDLEDLSNSIREKGVLQPILVRPSPDTAGEYQIVAGERAWRAAQRAGLKTVPIMVRELDDLAVLEIGIIENVQRADLNVLEEALSYKVLMEKFERTQENIAQTIGKSXSHVANXMRLLXLPDEVQSYLVSGELTAXHARAIAAAADPVALAKQIIEGGLSVRETEALARKAPNLSAGKSKGGRPPRVKDTDTQALESDLSSVLGLDVSIDHRGSTGTLTITYATLEQLDDLCNRLTRGI

Variants of: B1
Assay: one-hybrid fitness for binding parS DNA (scaled: cognate 1, non-cognate 0); higher = stronger binding
Conditions: with parS DNA site
Summary of the method: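 Values were rescaled so that cognate is 1 and non-cognate is 0. Each is a fitness, the log change in a variant's read ratio to wild type from Illumina reads of plasmids before and after selection, with three replicate libraries pooled and variants under 10 reads dropped. Selection of the Caulobacter ParB libraries, four specificity codons randomised, used E. coli USO with a HIS3 reporter, site 19 bp from the promoter, on M9-minus-histidine with 0.1 mM IPTG and 5 mM 3-AT for 48 hours at 37°C.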

| Variant | one-hybrid fitness for binding parS DNA |
| --- | --- |
| QAHT | ≤ 0.2 |
| EEVR | ≤ 0.2 |
| SSKS | ≤ 0.2 |
| KKMV | ≤ 0.2 |
| PSVA | ≤ 0.2 |
| GCQG | ≤ 0.2 |
| SQRC | ≤ 0.2 |
| PRYC | ≤ 0.2 |
| YNTL | ≤ 0.2 |
| RSRG | 0.965 |
| THMS | ≤ 0.2 |
| QMYA | ≤ 0.2 |
| RLHT | 0.937 |
| AEGI | ≤ 0.2 |
| LKLA | ≤ 0.2 |
| YCTD | ≤ 0.2 |
| STLV | ≤ 0.2 |
| WRES | ≤ 0.2 |
| QLWR | ≤ 0.2 |
| ANMV | ≤ 0.2 |
| RDDR | ≤ 0.2 |
| VGEF | ≤ 0.2 |
| PTTL | ≤ 0.2 |
| RTMI | ≤ 0.2 |

| Variant | one-hybrid fitness for binding parS DNA |
| --- | --- |
| VRIW | ≤ 0.2 |
| VETW | ≤ 0.2 |
| DMTV | ≤ 0.2 |
| FNVR | ≤ 0.2 |
| PMSR | ≤ 0.2 |
| ETPF | ≤ 0.2 |
| GLLE | ≤ 0.2 |
| CHLS | ≤ 0.2 |
| ACAL | ≤ 0.2 |
| IKTG | ≤ 0.2 |
| DCMR | ≤ 0.2 |
| WQMG | ≤ 0.2 |
| WCYR | ≤ 0.2 |
| TTTP | ≤ 0.2 |
| VPSF | ≤ 0.2 |
| LPTE | ≤ 0.2 |
| HWMS | ≤ 0.2 |
| GPQR | ≤ 0.2 |
| QASV | ≤ 0.2 |
| APSI | ≤ 0.2 |
| AYIV | ≤ 0.2 |
| SLLD | ≤ 0.2 |
| IDMS | ≤ 0.2 |
| NHKS | ≤ 0.2 |

| Variant | one-hybrid fitness for binding parS DNA |
| --- | --- |
| KTNA | ≤ 0.2 |
| CVWV | ≤ 0.2 |
| RGRI | ≤ 0.2 |
| SDAG | ≤ 0.2 |
| PRIT | ≤ 0.2 |
| GCPS | ≤ 0.2 |
| SLGL | ≤ 0.2 |
| KPMP | ≤ 0.2 |
| EMLR | ≤ 0.2 |
| AFEM | ≤ 0.2 |
| DYMG | ≤ 0.2 |
| RYVP | ≤ 0.2 |
| NTGT | ≤ 0.2 |
| PNLS | ≤ 0.2 |
| LNFL | ≤ 0.2 |
| MCRM | ≤ 0.2 |
| HAPT | ≤ 0.2 |
| RKCM | 0.286 |
| QNPS | ≤ 0.2 |
| VSGN | ≤ 0.2 |
| CDWS | ≤ 0.2 |
| RGKC | 0.833 |
| CQMG | ≤ 0.2 |
| TPWY | ≤ 0.2 |

| Variant | one-hybrid fitness for binding parS DNA |
| --- | --- |
| PAPW | ≤ 0.2 |
| TSCR | ≤ 0.2 |
| GNDY | ≤ 0.2 |
| DSCS | ≤ 0.2 |
| MPDT | ≤ 0.2 |
| NWVS | ≤ 0.2 |
| RAHC | 0.983 |
| RRGI | ≤ 0.2 |
| QSVT | ≤ 0.2 |
| WSKC | ≤ 0.2 |
| EDIR | ≤ 0.2 |
| GRKA | ≤ 0.2 |
| WTCC | ≤ 0.2 |
| TQSA | ≤ 0.2 |
| KSKS | ≤ 0.2 |
| ATSP | ≤ 0.2 |
| MCTF | ≤ 0.2 |
| QMAT | ≤ 0.2 |
| DHLR | ≤ 0.2 |
| WMCS | ≤ 0.2 |
| PHQT | ≤ 0.2 |
| NEGL | ≤ 0.2 |
| DDTG | ≤ 0.2 |
| LHLG | ≤ 0.2 |

| Variant | one-hybrid fitness for binding parS DNA |
| --- | --- |
| EMDR | ≤ 0.2 |
| MVDT | ≤ 0.2 |
| PMNI | ≤ 0.2 |
| RTHW | 0.243 |
| FGHL | ≤ 0.2 |
| FWRS | ≤ 0.2 |
| SPVF | ≤ 0.2 |
| WNKS | ≤ 0.2 |
| VLMR | ≤ 0.2 |
| EKDS | ≤ 0.2 |
| WLVT | ≤ 0.2 |
| SNFS | ≤ 0.2 |
| GMYM | ≤ 0.2 |
| AKKL | ≤ 0.2 |
| FSLK | ≤ 0.2 |
| TPRR | ≤ 0.2 |
| RYIG | 0.793 |
| NTTE | ≤ 0.2 |
| PGCV | ≤ 0.2 |
| CIYR | ≤ 0.2 |
| FPKR | ≤ 0.2 |
| FHTA | ≤ 0.2 |
| RWSI | ≤ 0.2 |
| EGPG | ≤ 0.2 |

| Variant | one-hybrid fitness for binding parS DNA |
| --- | --- |
| HIHR | ≤ 0.2 |
| QGTV | ≤ 0.2 |
| RYAK | ≤ 0.2 |
| CSFP | ≤ 0.2 |
| SVPH | ≤ 0.2 |
| SWPC | ≤ 0.2 |
| HLIC | ≤ 0.2 |
| RFTK | ≤ 0.2 |
| RGNW | ≤ 0.2 |
| RAAY | 0.478 |
| SWVK | ≤ 0.2 |
| TNVV | ≤ 0.2 |
| FEMR | ≤ 0.2 |
| PRKN | ≤ 0.2 |
| RSSE | ≤ 0.2 |
| RANT | 0.907 |
| RNMM | 0.205 |
| CNQS | ≤ 0.2 |
| RQDQ | ≤ 0.2 |
| GEIS | ≤ 0.2 |
| QSLH | ≤ 0.2 |
| RMDS | 1.02 |
| PQII | ≤ 0.2 |
| CIFG | ≤ 0.2 |

| Variant | one-hybrid fitness for binding parS DNA |
| --- | --- |
| HYTQ | ≤ 0.2 |
| RQHL | ≤ 0.2 |
| CSIT | ≤ 0.2 |
| LCGS | ≤ 0.2 |
| KLDI | ≤ 0.2 |
| SARV | ≤ 0.2 |
| RPFD | ≤ 0.2 |
| LPFS | ≤ 0.2 |
| VILE | ≤ 0.2 |
| TAWW | ≤ 0.2 |
| SNIS | ≤ 0.2 |
| QARH | ≤ 0.2 |
| QNFR | ≤ 0.2 |
| PAAT | ≤ 0.2 |
| GDTH | ≤ 0.2 |
| TMNP | ≤ 0.2 |
| SNYQ | ≤ 0.2 |
| YANR | ≤ 0.2 |
| APMR | ≤ 0.2 |
| PKDS | ≤ 0.2 |
| TLLV | ≤ 0.2 |
| MQAS | ≤ 0.2 |
| QFSD | ≤ 0.2 |
| AVLE | ≤ 0.2 |

| Variant | one-hybrid fitness for binding parS DNA |
| --- | --- |
| EYIL | ≤ 0.2 |
| CTTT | ≤ 0.2 |
| YMQG | ≤ 0.2 |
| AKQM | ≤ 0.2 |
| QYEK | ≤ 0.2 |
| PTRH | ≤ 0.2 |
| DISG | ≤ 0.2 |
| LCEF | ≤ 0.2 |
| QYGR | ≤ 0.2 |
| VGRT | ≤ 0.2 |
| NQYR | ≤ 0.2 |
| QYKW | ≤ 0.2 |
| IEKS | ≤ 0.2 |
| RCSF | 0.212 |
| TFHF | ≤ 0.2 |
| YAWG | ≤ 0.2 |
| HPYR | ≤ 0.2 |
| KLTW | ≤ 0.2 |
| LGLD | ≤ 0.2 |
| QCKD | ≤ 0.2 |
| HTDN | ≤ 0.2 |
| QTPK | ≤ 0.2 |
| WTQV | ≤ 0.2 |
| ATYR | ≤ 0.2 |

| Variant | one-hybrid fitness for binding parS DNA |
| --- | --- |
| HANG | ≤ 0.2 |
| GVLA | ≤ 0.2 |
| QVHM | ≤ 0.2 |
| FNNM | ≤ 0.2 |
| EVLR | ≤ 0.2 |
| SMMG | ≤ 0.2 |
| TTGA | ≤ 0.2 |
| YRNA | ≤ 0.2 |
| DYFR | ≤ 0.2 |
| LENF | ≤ 0.2 |
| PKEE | ≤ 0.2 |
| PKHR | ≤ 0.2 |
| VNVA | ≤ 0.2 |
| NCVS | ≤ 0.2 |
| PNSV | ≤ 0.2 |
| KSVF | ≤ 0.2 |
| EDAK | ≤ 0.2 |
| LQSG | ≤ 0.2 |
| ILPF | ≤ 0.2 |
| DSHE | ≤ 0.2 |
| PFLG | ≤ 0.2 |
| YWRT | ≤ 0.2 |
| VIKV | ≤ 0.2 |
| PETY | ≤ 0.2 |

| Variant | one-hybrid fitness for binding parS DNA |
| --- | --- |
| TPHS | ≤ 0.2 |
| MDNA | ≤ 0.2 |
| PKGL | ≤ 0.2 |
| DTRC | ≤ 0.2 |
| PTFN | ≤ 0.2 |
| QIST | ≤ 0.2 |
| AKCH | ≤ 0.2 |
| VVRF | ≤ 0.2 |
| RLEK | ≤ 0.2 |
| QTYE | ≤ 0.2 |
| RAEY | 0.402 |
| MVAT | ≤ 0.2 |
| KSQF | ≤ 0.2 |
| MSLS | ≤ 0.2 |
| CFNR | ≤ 0.2 |
| WMSS | ≤ 0.2 |
| EPEL | ≤ 0.2 |
| CVGT | ≤ 0.2 |
| QYQA | ≤ 0.2 |
| VQNS | ≤ 0.2 |
| SDHA | ≤ 0.2 |
| LLMV | ≤ 0.2 |
| YQNS | ≤ 0.2 |
| AHRS | ≤ 0.2 |

| Variant | one-hybrid fitness for binding parS DNA |
| --- | --- |
| TARV | ≤ 0.2 |
| RRYG | 0.769 |
| NKHS | ≤ 0.2 |
| HVQC | ≤ 0.2 |
| TCVL | ≤ 0.2 |
| STCL | ≤ 0.2 |
| YNLA | ≤ 0.2 |
| VITT | ≤ 0.2 |
| RLYQ | ≤ 0.2 |
| TKAW | ≤ 0.2 |
| TKSN | ≤ 0.2 |
| RGVH | ≤ 0.2 |
| WHRS | ≤ 0.2 |
| LETF | ≤ 0.2 |
| GMGG | ≤ 0.2 |
| IDLG | ≤ 0.2 |
| LNEC | 0.237 |
| RAQI | ≤ 0.2 |
| PFIT | ≤ 0.2 |
| RYDT | 0.79 |
| QGLC | ≤ 0.2 |
| LPRM | ≤ 0.2 |
| DWDR | ≤ 0.2 |
| DLIM | ≤ 0.2 |

| Variant | one-hybrid fitness for binding parS DNA |
| --- | --- |
| GLKY | ≤ 0.2 |
| NTKG | ≤ 0.2 |
| NALI | ≤ 0.2 |
| NKAT | ≤ 0.2 |
| KNTM | ≤ 0.2 |
| GLEG | ≤ 0.2 |
| GFPN | ≤ 0.2 |
| PLLH | ≤ 0.2 |
| RTYR | ≤ 0.2 |
| AHML | ≤ 0.2 |
| ILTI | ≤ 0.2 |
| YHPA | ≤ 0.2 |
| ILRT | ≤ 0.2 |
| NMDL | ≤ 0.2 |
| ANMT | ≤ 0.2 |
| RVLN | 0.423 |
| ARWS | ≤ 0.2 |
| SMEP | ≤ 0.2 |
| PYTS | ≤ 0.2 |
| TERA | ≤ 0.2 |
| QQSN | ≤ 0.2 |
| EMVL | ≤ 0.2 |
| LHTQ | ≤ 0.2 |
| MITT | ≤ 0.2 |

| Variant | one-hybrid fitness for binding parS DNA |
| --- | --- |
| LYTC | ≤ 0.2 |
| CTNG | ≤ 0.2 |
| HWEI | ≤ 0.2 |
| TSSC | ≤ 0.2 |
| IGHC | ≤ 0.2 |
| TNMV | ≤ 0.2 |
| GVYR | ≤ 0.2 |
| VSPT | ≤ 0.2 |
| HDDG | ≤ 0.2 |
| SIWA | ≤ 0.2 |
| TESL | ≤ 0.2 |
| QASC | ≤ 0.2 |
| KCSL | ≤ 0.2 |
| SRTH | ≤ 0.2 |
| GCKP | ≤ 0.2 |
| YVPR | ≤ 0.2 |
| SNPM | ≤ 0.2 |
| LRTA | ≤ 0.2 |
